In PubChem BioAssay AID1477 (National Center for Advancing Translational Sciences (NCATS), 2009):
Hit rate of the full screen: of about 230,000 compounds, fewer than 10 were called active. Inconclusive results, whose numbers are uncertain, are shown with a selection of clear calls. The call rests on the fitted dose curve; in most records, active means well fitted curve in the direction sought with a large enough effect; inconclusive means small, poorly fitted or top-dose-only effect, or effect the other way, or another doubt; inactive means no such curve, though single readings can be large or run the other way. No potency is given beside an inconclusive call; the fits are too rough.

Each compound was assayed against Runt-related transcription factor 1 (Homo sapiens) + Core-binding factor subunit beta (Homo sapiens) (UniProt Q01196+Q13951) (assay: qHTS Assay for Compounds Blocking the Interaction Between CBF-beta and RUNX1 for the Treatment of Acute Myeloid Leukemia). Details: AlphaScreen CBFb-His/RUNX1-biotin binding, biochemical; activity, negative = inhibition: at 59.8 µM (top of the series) unless noted.
UniProt Q01196, sequence (Q01196 whole entry, looked up): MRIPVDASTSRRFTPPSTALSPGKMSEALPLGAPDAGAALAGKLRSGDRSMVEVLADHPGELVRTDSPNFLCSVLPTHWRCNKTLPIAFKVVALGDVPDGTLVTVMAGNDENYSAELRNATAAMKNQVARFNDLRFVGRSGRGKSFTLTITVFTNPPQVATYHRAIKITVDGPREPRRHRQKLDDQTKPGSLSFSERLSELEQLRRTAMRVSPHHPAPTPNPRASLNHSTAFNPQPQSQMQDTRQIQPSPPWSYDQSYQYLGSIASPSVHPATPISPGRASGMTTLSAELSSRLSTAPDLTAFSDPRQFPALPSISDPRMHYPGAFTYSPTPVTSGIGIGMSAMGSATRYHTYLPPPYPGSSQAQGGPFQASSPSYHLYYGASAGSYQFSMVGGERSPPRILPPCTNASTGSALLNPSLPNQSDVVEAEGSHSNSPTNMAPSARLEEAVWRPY
UniProt Q01196, sequence (Q13951 whole entry, looked up): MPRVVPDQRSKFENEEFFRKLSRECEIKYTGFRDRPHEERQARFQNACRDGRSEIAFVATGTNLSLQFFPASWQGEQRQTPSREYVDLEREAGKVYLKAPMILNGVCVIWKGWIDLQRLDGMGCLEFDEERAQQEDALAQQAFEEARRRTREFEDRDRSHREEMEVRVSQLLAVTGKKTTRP
In short: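 Bead-based AlphaScreen assay; binding partners His-tagged CBF-beta and biotinylated RUNX1 at 30 nM each. Compound exposure 15 min after a 20-min protein preincubation; bead step 90 min; all steps at room temperature.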
Wherever activity, negative = inhibition is given: % of control where 0% means no effect.

SMILES | Potency | activity, negative = inhibition
CCCCCCCn1ccc(O)c(CC(=O)OC)c1=O | inconclusive [activator, single point] | –
CCn1cc(C(=O)NCC(=O)OC)c2cc(OC)c(OC)cc2c1=O | – | inactive: -2.34%
C=C(C)C(=O)Nc1cccc(C2=NOC3(C2)C[C@@H](C(N)=O)N(C(=O)CC(c2ccccc2)c2ccccc2)C3)c1 (stereo partly drawn) | inconclusive [inhibitor, single point] | –
CN(C)S(=O)(=O)c1cccc(N=C2NN=C(c3ccccc3)CS2)c1 | inconclusive [inhibitor, full curve] | –
CCN1C(=O)[C@H]2[C@H]3[C@H](O)[C@H](O)C/C(=N/OCC(C)C)[C@@H]3CC[C@@H]2C1=O | – | inactive: 6.19% [at 13.1 µM]
c1nc(Nc2ccc(N3CCOCC3)cc2)c2ccsc2n1 | inconclusive [inhibitor, single point] | –
CC1=NC(=O)C(N=Nc2cccc(O)c2)N1c1ccccc1 (stereo not drawn) | inconclusive [inhibitor, single point] | –
C=CCOC(=O)C(C#N)c1nc2ccccc2nc1N1CCCC1 (stereo not drawn) | inconclusive [inhibitor, partial curve] | –
Nc1ccc(S(=O)C(F)(F)F)cc1 (stereo not drawn) | inconclusive [activator, single point] | –
C=CCN=c1scc(-c2ccccc2)n1/N=C/c1ccccn1 | inconclusive [inhibitor, partial curve] | –
Cc1ccc(NC(=S)NCC(C)C)cc1 | – | inactive: -2.4%
Clc1ccc(CSc2cc3c(nn2)-c2ccccc2CC3)cc1 | inconclusive [activator, single point] | –
COc1ccc(S(=O)(=O)N2CCOCC2)cc1N=Nc1sc(N)nc1-c1ccccc1 | inconclusive [inhibitor, full curve, poor fit] | –
C=CCN(N=Nc1cccc([N+](=O)[O-])c1)c1cccc([N+](=O)[O-])c1 | inconclusive [inhibitor, single point] | –
Clc1ccccc1C(c1ccccc1)(c1ccccc1)n1cccn1 | inconclusive [activator, single point] | –
N=C(c1ccc([N+](=O)[O-])cc1)N1CCCCCC1 | – | inactive: 3.49%
O=C(Nc1cccc(C(=O)N2CCCCCC2)c1)c1ccco1 | – | inactive: 5.01%
Cc1csc2c(N3CCN(C(=O)Nc4ccc(OC(F)(F)F)cc4)CC3)ncnc12 | inconclusive [activator, single point] | –
CCn1c(=O)c(=O)[nH]c2cc(C(=O)NC3CCCc4ccccc43)ccc21 (stereo not drawn) | – | inactive: -3.65%
CCCCNC(=O)Oc1c(Br)cc2sc(=O)oc2c1Br | inconclusive [inhibitor, partial curve] | –
CCOc1ccc(NCc2nnc(SCc3ccc(Cl)cc3)n2-c2ccccc2)cc1 | inconclusive [inhibitor, single point] | –
O=C1c2nc3ccccn3c2C(=O)N1Cc1ccccc1 | inconclusive [inhibitor, single point] | –
COc1ccc(NC(=O)/C(=C\c2cc(OC)c(OC)cc2[N+](=O)[O-])NC(=O)c2ccccc2)cc1 | – | inactive: -1.1%

SMILES | Potency | activity, negative = inhibition
C#CCOCCOCCOCCNc1nc(N2CCN(C(=O)[C@H](Cc3cc4ccccc4[nH]3)n3cc([C@@H](N)Cc4ccc(O)cc4)nn3)CC2)nc(N2CCN(C(=O)[C@H](Cc3cc4ccccc4[nH]3)n3cc([C@@H](N)CC(C)C)nn3)CC2)n1 | inconclusive [inhibitor, single point] | –
CC(C)(C)n1nnnc1C(c1cccnc1)N1CCN(c2cccc(C(F)(F)F)c2)CC1 (stereo not drawn) | – | inactive: 0.0805%
O=C1c2ccccc2-c2onc3ccc(NCc4ccco4)c1c23 | inconclusive [activator, partial curve] | –
CC(O)Cn1ccccc1=N (stereo not drawn) | – | inactive: 7.51%
Cc1ccc(NC(=O)Nc2nc3ccccc3s2)cc1NC(=O)Nc1nc2ccccc2s1 | inconclusive [inhibitor, full curve] | –
Cc1cc(C(=O)N[C@H](c2ccccc2)[C@@]2(C)C[C@@H]2[C@@H](C)C(=O)Nc2ccc3ccccc3c2)no1 | inconclusive [inhibitor, single point] | inactive: 6.74% [at 2.36 µM]
S=C(NC1CCCCC1)N(CCc1ccccc1)CCc1ccccc1 | – | inactive: 23.7%
Cc1cc(C)c2cc(C#N)c(N3CCCC3)nc2c1 | – | inactive: 9.95%
C[C@@H]1C(c2cccc(Cl)c2)=NN(c2ccc(Br)cc2)[C@H]1C(=O)N1CCOC1=O | inconclusive [activator, partial curve] | –
CC1OC(OCC2OC(Oc3c(-c4ccc(O)cc4)oc4cc(O)cc(O)c4c3=O)C(O)C(O)C2O)C(O)C(O)C1O (stereo not drawn) | inconclusive [inhibitor, single point] | –
O=C(Nc1ccc2ccccc2c1)N1C[C@H]2C[C@@H](C1)c1cccc(=O)n1C2 | inconclusive [activator, full curve, poor fit] | –
O=C(c1noc2c1CCc1ccccc1-2)N1CCc2ccccc2C1 | inconclusive [activator, partial curve] | –
COc1ccccc1N1C(=O)C2C(C(=O)c3ccccc3)=NN(c3ccccc3)C2C1=O (stereo not drawn) | inconclusive [activator, partial curve] | –
O=C(c1cccc(OC(F)F)c1)N1CCN(c2ncccn2)CC1 | – | inactive: -1.6%
CSCC[C@H](NC(=O)[C@@H]1CCCN1C(=O)CNC(=O)[C@H](CCCCN)NC(=O)[C@H](Cc1cnc[nH]1)NC(=O)[C@H](CO)NC(=O)[C@H](CC(C)C)NC(=O)[C@H](CCCNC(=N)N)NC(=O)[C@@H]1CCCN1C(=O)[C@H](CCCNC(=N)N)NC(=O)[C@H](CCC(N)=O)NC(=O)[C@H](CCCNC(=N)N)NC(=O)[C@H](CCCNC(=N)N)NC(=O)[C@H](Cc1ccccc1)NC(=O)[C@@H](N)CCCCN)C(=O)N1CCC[C@H]1C(=O)N[C@@H](Cc1ccccc1)C(=O)O | inconclusive [activator, single point] | –
C=C1CCN([C@@H](C)C(=O)OCc2cccc(C)c2)S(=O)(=O)c2ccccc21 | inconclusive [activator, partial curve] | –
CN1c2ccccc2-c2nc3ccccc3n2C1c1cccs1 (stereo not drawn) | inconclusive [activator, partial curve] | –
Clc1ccccc1CSc1nnc(-c2ccco2)c(-c2ccco2)n1 | inconclusive [inhibitor, partial curve] | –
O=[N+]([O-])c1cc2oc3c(c2c(C=NCc2ccncc2)c1O)CCCC3 | inconclusive [inhibitor, single point] | –
NS(=O)(=O)c1ccc(N=Nc2ccc(=O)[nH]c2O)cc1 | inconclusive [inhibitor, partial curve] | –
O=C(O)CCc1c(C(=O)O)[nH]c2cc(Cl)cc(Cl)c12 | – | inactive: 18.9%
O=C(O)c1ccc(N/N=C/c2ccnc3ccccc23)cc1 | – | inactive: 2.71%
CCOc1cc(/C=N/NC(=O)CN2CCOCC2)ccc1OCc1ccccc1 | – | inactive: 5.63%

SMILES | Potency | activity, negative = inhibition
N#CCc1cc2ccc3cccc4ccc(c1)c2c34 | inconclusive [activator, partial curve] | –
Nc1c(C(=O)NCCN2CCOCC2)c2nc3ccccc3nc2n1CCc1ccccc1F | inconclusive [activator, partial curve] | –
CCn1c(CNc2ccccc2Cl)nnc1SCCN1CCCCC1 | – | inactive: 4.02%
COc1ccccc1NC(=O)CSc1nc2ccccc2n1C(C)=O | – | inactive: 1.54%
CC(C)N=C(N)/N=C(\N)Nc1ccc(Cl)cc1 | – | inactive: -12.8% [at 21.7 µM]
CC1=CC(=O)N(c2cccc(C(F)(F)F)c2)C1c1ccc(Cl)cc1 (stereo not drawn) | – | inactive: 0.229%
O=C1C[C@@H](O)[C@@H](O)[C@@H]2[C@H]3C(=O)N(c4ccc(F)cc4F)C(=O)[C@@H]3CC[C@@H]12 | – | inactive: 13.7% [at 13.1 µM]
O=C(O)C1Cc2ccccc2CN1S(=O)(=O)c1ccccc1 (stereo not drawn) | inconclusive [activator, single point] | –
CC(=O)Nc1nc(SCc2ccc(Cl)cc2Cl)n[nH]1 | – | inactive: 11.6%
CCOC(=O)CC1C(=O)NCCN1c1nc2c(C)cccn2c(=O)c1/C=C1\SC(=S)N(CC(C)C)C1=O (stereo not drawn) | – | inactive: -4.95%
CCc1c(C)sc(NC(=O)c2cc(C)on2)c1C#N | – | inactive: 2.11%
Cc1ccccc1CSc1nnc(NC(=O)Cc2cccs2)s1 | inconclusive [inhibitor, single point] | –
S=C(NCc1ccc(Cl)cc1)Nc1ccccc1 | – | inactive: -17.6%
Cc1cc(C)cc(N2C(=O)NC(=O)/C(=C\C=C\c3ccco3)C2=O)c1 | inconclusive [inhibitor, single point] | –
Cc1cc(Oc2ncccc2[N+](=O)[O-])c2cc(Cl)ccc2n1 | – | inactive: -7.6%
Cn1cccc1/C=N/NC(=O)c1cc(-c2cccs2)nc2ccccc12 | inconclusive [inhibitor, single point] | –
CCOC(=O)CCNCc1ccc(OC)c(OC)c1 | inconclusive [activator, partial curve, poor fit] | –
CCCCN(C)CCCNC(=O)c1cn(CC)c2ccc(S(=O)(=O)N3CCc4ccccc4C3)cc2c1=O | – | inactive: 0.261%
Cc1cccc(CN2CCN(C3CCCC3)C(CCO)C2)n1 (stereo not drawn) | inconclusive [activator, single point] | –
CC1CCCCN1c1ncnc(N)c1[N+](=O)[O-] (stereo not drawn) | – | inactive: -0.991%
COc1ccc(-c2cnc(N)nc2-c2ccc(OCc3ccccc3)cc2O)cc1 | inconclusive [inhibitor, single point] | –
